Data: PubChem BioAssay AID1476 (National Center for Advancing Translational Sciences (NCATS), 2009)
Where “and” joins values, the source holds several entries; their conditions need not be identical. Identical values can stand only once. Screen size: about 200,000 compounds; about 4,500 (2.2%) were called active. The shares of active, inactive and inconclusive entries below differ from those in the screen. Calls follow the shape of the dose curve; as a rule, active = well fitted inhibition curve with a large enough effect; inconclusive = small, poorly fitted or top-dose-only effect, or effect the other way; inactive = flat fitted curve, though single readings scatter. Potencies of inconclusive entries are doubtful fits and often do not repeat.

biological target: Cruzipain (Trypanosoma cruzi) (UniProt P25779); test: qHTS Assay for Promiscuous and Specific Inhibitors of Cruzain (without detergent); details: purified cruzain, Z-FR-AMC fluorescence, no detergent; also: nearly all actives have a fitted effect of over 40% in size;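 as to max response, negative = inhibition: plate controls were enzyme without inhibitor for no effect and buffer without enzyme for full effect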
Chain of UniProt P25779 (P25779 whole entry, looked up): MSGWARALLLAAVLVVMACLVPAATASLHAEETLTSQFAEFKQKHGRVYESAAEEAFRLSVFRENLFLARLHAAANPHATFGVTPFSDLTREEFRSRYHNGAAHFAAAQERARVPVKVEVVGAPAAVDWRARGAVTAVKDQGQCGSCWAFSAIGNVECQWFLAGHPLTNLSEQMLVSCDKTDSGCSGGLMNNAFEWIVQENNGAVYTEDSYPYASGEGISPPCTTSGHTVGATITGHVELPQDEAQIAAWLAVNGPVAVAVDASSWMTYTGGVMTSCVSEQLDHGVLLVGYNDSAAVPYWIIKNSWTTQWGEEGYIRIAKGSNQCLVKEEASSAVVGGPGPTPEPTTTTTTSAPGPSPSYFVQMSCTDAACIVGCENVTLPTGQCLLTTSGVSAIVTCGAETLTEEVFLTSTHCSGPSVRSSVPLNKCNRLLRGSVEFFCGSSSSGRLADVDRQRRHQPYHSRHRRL
Procedure, shortened: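 Detergent-free condition (0.00005% Triton X-100) in acetate buffer pH 5.5 with DTT. 1.5 nM enzyme and compound were pre-mixed 15 min, then 2 uM Z-FR-AMC substrate added; reaction progress from fluorescence change between first and third reads (60 s).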
Potency is read from the fitted curve at half-maximal effect; tags tell the direction and shape of the fitted curve.

SMILES | Potency | max response, negative = inhibition
COc1ccccc1NC(=O)C1CCC(CNS(=O)(=O)c2ccc3c(c2)CC(C)N3C(C)=O)CC1 (configuration not stated) | inconclusive: 39.8 µM [activator, single point] | –
COc1ccc(C2CC(=O)C3=C(C2)NC(C)=C(C(=O)Nc2ccccc2C)C3c2coc3ccc(C)cc3c2=O)cc1OC (configuration not stated) | inconclusive: 25.1 µM [activator, partial curve] | –
CCC(=O)N(CCC(Cc1ccccc1)c1ccc2c(c1)OCO2)Cc1ccccc1F (configuration not stated) | – | inactive: 5.17%
O=C(Nc1ccc(Br)cc1)c1cccc(N2C(=O)C3C4CCC(C4)C3C2=O)c1 (configuration not stated) | inconclusive: 31.6 µM [activator, single point] | –
O=C(c1ccc2c(c1)N(Cc1cccc(Cl)c1)C(=O)c1ccccc1S2)N1CCOCC1 | inconclusive: 25.1 µM [activator, single point] | –
c1coc(CN2CN=C(Nc3nc4ccccc4s3)NC2)c1 | active: 12.6 µM | –
O=C1/C(=C/c2c[nH]c3ccccc23)CCC/C1=C\c1c[nH]c2ccccc12 | active: 25.1 µM | –
COc1cc(NS(=O)(=O)c2ccc(N/C=C\C(=O)c3ccc(OC)c(OC)c3)cc2)nc(OC)n1 | inconclusive: 31.6 µM [activator, single point] | –
c1ccc(-c2ncc3c(ccc4ccccc43)n2)cc1 | inconclusive: 39.8 µM [inhibitor, single point] | –
COc1cccc(NC(=O)CSc2nc3c(oc4ccccc43)c(=O)[nH]2)c1 | inconclusive: 31.6 µM [inhibitor, single point] | –
Cc1ccc(O)c(C(=O)c2cc(C(=O)NCCc3ccccc3)c(=O)n(CCc3ccccc3)c2)c1 | active: 25.1 µM | –
COCCN(CCOC)c1ncnc2c1c(-c1ccccc1)cn2-c1ccc(C)c(Cl)c1 | inconclusive: 15.8 µM [activator, partial curve] | –
Cc1ccc(Cn2cc(CCC(=O)NCc3ccc(OC(C)C)cc3)c3ccccc32)cc1 | – | inactive: 6.72%
COc1ccc(CCN2C(=O)CN(C3CCC(C)CC3)C(=O)C2c2ccc(OC(C)C)c(OC)c2)cc1OC (configuration not stated) | inconclusive: 7.94 µM [activator, single point] | –
C/C(=N\Nc1ccc(Cl)c(Cl)c1)c1ccc(-n2ccnc2)cc1 | inconclusive: 25.1 µM [inhibitor, single point] | –
COc1ccc(/C=N/Nc2ncnc3sc4c(c23)CCCC4)cc1OC | inconclusive: 39.8 µM [activator, single point] | –
COC(=O)C1=Nc2ccccc2/C1=C\c1c(O)n(-c2ccc(Br)cc2)c(=O)[nH]c1=O | inconclusive: 39.8 µM [activator, single point] | –
CC(C)(C)OC(=O)N1CCC(c2c(C(=O)N3CCN(C(=O)c4ccco4)CC3)cnn2-c2ccccc2Cl)CC1 | inconclusive: 39.8 µM [activator, single point] | –
CSc1ccc(Cl)c(C(=O)OCC(=O)NCc2ccco2)c1 | – | inactive: 2.56%
COc1ccc(/C=N/NC(=S)Nc2ccccc2)cc1COc1ccc(F)cc1F | active: 7.94 µM | –
CC(C)c1ccc(OCc2cc(=O)n3c(-c4ccccc4)csc3n2)cc1 | – | inactive: -14%

SMILES | Potency | max response, negative = inhibition
CC(C)(C)c1cc(CCC(=O)NNC(=S)NC(=O)c2ccccc2)cc(C(C)(C)C)c1O | inconclusive: 39.8 µM [inhibitor, single point] | –
COc1cc(/C=N/NC(=O)CN2CC(c3ccccc3)CC2=O)ccc1OC(=O)N(C)C (configuration not stated) | inconclusive: 25.1 µM [activator, single point] | –
CC(C)(C)NC(=O)COC(=O)c1ccccc1OCC(=O)Nc1ccc(Br)cc1 | inconclusive: 20 µM [activator, single point] | –
Cc1cccc(N(C)S(=O)(=O)c2nnc(NC(=O)C3CCCCC3)s2)c1 | – | inactive: -27.6%
O=Nc1ccc(Nc2ccccc2)cc1 | active: 7.94 µM | –
O=C(NC1CCCCC1)C(c1ccc(F)cc1)N(C(=O)c1cccs1)c1ccc2c(c1)OCO2 (configuration not stated) | inconclusive: 39.8 µM [inhibitor, single point] | –
COc1ccccc1OCCn1cc(/C=C(\C#N)C(=O)NCc2cccs2)c2ccccc21 | inconclusive: 39.8 µM [inhibitor, single point] | –
CCOC(N)=O | – | inactive: 7.69%
COc1cc(C(=O)Nc2ccc(S(=O)(=O)N3CCc4ccccc43)cc2)cc(OC)c1OC | inconclusive: 25.1 µM [activator, single point] | –
CCc1cc2c(=O)n(Cc3ccco3)c(SCC(=O)N3CCCc4ccccc43)nc2s1 | inconclusive: 20 µM [inhibitor, partial curve] | –
CCCCNC(=O)c1cc2c(=O)n3cccc(C)c3nc2n1C | inconclusive: 20 µM [inhibitor, partial curve] | –
CCOC(=O)/C=c1\s/c(=C\c2ccc(-c3ccccc3)cc2)c(=O)n1CC(=O)NCc1ccc2c(c1)OCO2 | active: 2.51 µM | –
COc1ccc(N2CCN(CC(=O)Nc3nnc(-c4ccccc4)s3)CC2)cc1 | active: 25.1 µM | –
Cn1c(NCC(O)CO)nc2c1c(=O)n(Cc1ccc(Cl)c(Cl)c1)c(=O)n2C (configuration not stated) | inconclusive: 39.8 µM [activator, single point] | –
CC(C)c1ccc(/C=C(\C#N)c2nc(-c3ccc(O)cc3)cs2)cc1 | inconclusive: 31.6 µM [inhibitor, single point] | –
CC(C)OCCCNC(=O)c1c(N)n(/N=C/c2ccccn2)c2nc3ccccc3nc12 | inconclusive: 15.8 µM [activator, partial curve] | –
CCOc1ccccc1NC(=O)C1CCCN(S(=O)(=O)c2cn(C)cn2)C1 (configuration not stated) | – | inactive: -18.2%
CCOc1ccc(N(CC(=O)NCC2CCCO2)S(=O)(=O)c2ccc(Cl)cc2)cc1 (configuration not stated) | – | inactive: 6.45%
N/C(=N\OC(=O)c1ccc2ccccc2c1)c1cccc([N+](=O)[O-])c1 | inconclusive: 39.8 µM [inhibitor, single point] | –
COc1ccc(S(=O)(=O)NNC(=O)c2csc(-n3nc(C)cc3C(F)(F)F)n2)cc1OC | inconclusive: 25.1 µM [activator, partial curve] | –
COc1ccc(C(=O)Nc2ccccc2C(=O)OCc2cc(=O)n3nc(C4CC4)sc3n2)cc1 | – | inactive: 1.21%

SMILES | Potency | max response, negative = inhibition
CCCCOc1ccc(C(=O)Nc2ccc3c(c2)CCCN3S(=O)(=O)c2ccc(C)cc2)cc1 | inconclusive: 20 µM [inhibitor, partial curve, poor fit] | –
CCOC(=O)c1sc(C)c2c(=O)n(CC(=O)c3ccc(Br)cc3)nnc12 | inconclusive: 39.8 µM [inhibitor, single point] | –
COc1ccc(N2CCN(c3ccc(N)cc3C#N)CC2)cc1 | inconclusive: 6.31 µM [inhibitor, single point] | –
CCOc1ccc(NC(=O)Cn2c(=O)n(Cc3ccc(C(=O)NCc4ccc5c(c4)OCO5)cc3)c(=O)c3ccccc32)cc1 | inconclusive: 3.16 µM [inhibitor, single point] | –
O=c1cc(N2CCOCC2)oc2c(-c3ccccc3)cccc12 | – | inactive: 5.83% and inactive: 8.46%
Cc1ccc(N2CC(C(=O)NCc3nnnn3-c3ccc(C)c(C)c3)CC2=O)cc1 (configuration not stated) | inconclusive: 25.1 µM [activator, single point] | –
COC(=O)c1ccc(C(NC(=O)OCc2ccccc2)/C(=C/[C@@H](C)C(=O)NCc2ccc(S(C)(=O)=O)cc2)c2cccnc2)cc1 (some centres not stated) | inconclusive: 39.8 µM [activator, single point] | –
CCOc1ccc(-c2cc(NC(=O)Nc3ccccc3C(F)(F)F)c(C(=O)OC)s2)cc1 | – | inactive: 7.12%
COc1ccc(/C=N/Nc2nc(-c3ccc(Cl)cc3)cc(C(F)(F)F)n2)cc1OC | inconclusive: 25.1 µM [activator, single point] | –
COc1ccc(OC)c(C(=O)CSc2nc3c(c(=O)n(C)c(=O)n3C)n2C(C)C)c1 | inconclusive: 25.1 µM [activator, partial curve] | –
Cc1ccc(S(=O)(=O)NCCC(=O)NCc2ccco2)cc1 | – | inactive: 2.71%
CCn1c(SCC(=O)Nc2nc(-c3ccc(C)cc3)cs2)nnc1-c1ccccc1O | inconclusive: 25.1 µM [inhibitor, single point] | –
COc1cccc(/C=N/NC(=O)CC(=O)NCCc2ccc(OC)c(OC)c2)c1 | – | inactive: 9.47%
Cc1nnnn1/C(=C\c1ccccc1)C(=O)OCC(=O)N1CC2(C)CC1CC(C)(C)C2 (configuration not stated) | inconclusive: 25.1 µM [activator, partial curve] | –
Cc1ccc(CNC(=O)Cn2ccn(-c3cc(C)cc(C)c3)c(=O)c2=O)cc1 | inconclusive: 25.1 µM [inhibitor, single point] | –
CC(=O)N1c2ccc(S(=O)(=O)NCCC(=O)Nc3ccc(C)cc3Br)cc2CC1C (configuration not stated) | – | inactive: -3.58%
CC(=O)[C@H]1[C@@H]2C(=O)N(c3cccc(Cl)c3)C(=O)[C@@H]2[C@H]2c3ccccc3C=CN21 | inconclusive: 25.1 µM [inhibitor, single point] | –
O=C(c1cccc(S(=O)(=O)N2CCOCC2)c1)N1CCN(c2ccc(F)cc2)CC1 | inconclusive: 39.8 µM [activator, single point] | –
N=C1/C(=C/c2cccn2-c2cccc([N+](=O)[O-])c2)C(=O)N=C2SC=CN12 | inconclusive: 39.8 µM [inhibitor, single point] | –
CC1=C(C(=O)Nc2ccccc2)C(c2cccs2)n2nc(SCc3ccccc3)nc2N1 (configuration not stated) | inconclusive: 3.98 µM [inhibitor, single point] | –
